# Experimental data published in the supplement of paper PMC9174493.
# Counter-ions that a name gives are not always drawn. This is one part of the list. Single values of this set are uncertain. Values with irradiation are relative to irradiated vehicle.
# Test system: A549-Dual
# Assay: ISRE reporter (Lucia luciferase) activity, viability-corrected, relative to vehicle (fold change vs vehicle); higher = more activation of STING-IRF / NF-kB immune response reporter
# Details: 10 µM; irradiation: 8 Gy/4 fr
row,SMILES,ISRE reporter
1,O=C(O)CC(O)C(=O)O (stereo not given) [Malic acid],0.0857
2,CCC(C)C(N)C1=NCC(C(=O)NC(CC(C)C)C(=O)NC(CCC(=O)[O-])C(=O)NC(C(=O)NC2CCCCNC(=O)C(CC(N)=O)NC(=O)C(CC(=O)[O-])NC(=O)C(Cc3c[nH]cn3)NC(=O)C(Cc3ccccc3)NC(=O)C(C(C)CC)NC(=O)C(CCCN)NC2=O)C(C)CC)S1.[Zn+2] (stereo not given) [Bacitracin Zinc],0.728
3,Cc1cc(C(C)(C)C)cc(C)c1CC1=NCCN1.Cl [Xylometazoline HCl],0.922
4,CNCCC(Oc1cccc2ccccc12)c1cccs1 (stereo not given) [Duloxetine],1.07
5,CC(C)(C)CC(C)(C)c1ccc(OCCOCC[N+](C)(C)Cc2ccccc2)cc1.[Cl-] [Benzethonium Chloride],0.147
6,O=C(O)c1ccc(-n2nc(-c3ccccc3O)nc2-c2ccccc2O)cc1 [Deferasirox],0.166
7,Cc1onc(-c2c(F)cccc2Cl)c1C(=O)NC1C(=O)N2C1SC(C)(C)C2C(=O)[O-].[Na+] (stereo not given) [Flucloxacillin sodium],0.778
8,Cc1nc(C)c(C)nc1C.Cl [Ligustrazine hydrochloride],0.81
9,C=CC1(C)CC(OC(=O)CSC2CC3CCC(C2)N3C)C2(C)C(C)CCC3(CCC(=O)C32)C(C)C1O (stereo not given) [Retapamulin],0.644
10,NS(=O)(=O)c1cc(C(=O)O)c(NCc2ccco2)cc1Cl [Furosemide],1.01
11,CC1CCC(C(C)C)C(O)C1 (racemic) [DL-Menthol],1.18
12,NCCCC[C@H](N)C(=O)O [L-lysine],1.59
13,CC(CCC(=O)O)C1CCC2C3C(O)CC4CC(O)CCC4(C)C3CCC12C (stereo not given) [Ursodiol],0.708
14,C=C1c2c(Cl)ccc(O)c2C(=O)C2=C(O)C3(O)C(=O)C(C(N)=O)=C(O)C(N(C)C)C3C(O)C12.O=C(O)c1cc(S(=O)(=O)O)ccc1O (stereo not given) [Meclocycline Sulfosalicylate],0.328
15,COc1ccc(Cc2cnc(N)nc2N)cc1OC [Diaveridine],0.677
16,CC(CCC(=O)O)C1CCC2C3C(O)CC4CC(O)CCC4(C)C3CCC12C (stereo not given) [Chenodeoxycholic Acid],0.591
17,COc1cc(/C=C/C(=O)[O-])ccc1O.[Na+] [Sodium ferulate],0.728
18,CN1CCN(CC(=O)N2c3ccccc3C(=O)Nc3cccnc32)CC1.Cl.Cl [Pirenzepine dihydrochloride],0.919
19,OCc1ccccc1 [Benzyl alcohol],0.919
20,CN1c2ccccc2C(=O)N2CCc3c([nH]c4ccccc34)C21 (stereo not given) [Evodiamine],0.21

row,SMILES,ISRE reporter
1,Cl.OC(CCN1CCCCC1)(c1ccccc1)C1CCCCC1 (stereo not given) [Trihexyphenidyl hydrochloride],0.83
2,CCNC1CN(CCCOC)S(=O)(=O)c2sc(S(N)(=O)=O)cc21 (stereo not given) [Brinzolamide],1.04
3,CCCCNc1cc(C(=O)O)cc(S(N)(=O)=O)c1Oc1ccccc1 [Bumetanide],0.979
4,Cl.NCCCC[C@H](N)C(=O)O [L-Lysine hydrochloride],0.811
5,CC(NCCCc1cccc(C(F)(F)F)c1)c1cccc2ccccc12.Cl (stereo not given) [Cinacalcet HCl],0.996
6,O=C(NC1CCN(CCCCC2(C(=O)NCC(F)(F)F)c3ccccc3-c3ccccc32)CC1)c1ccccc1-c1ccc(C(F)(F)F)cc1 [Lomitapide],0.611
7,CSCCNc1nc(SCCC(F)(F)F)nc2c1ncn2C1OC(COP(=O)([O][Na])OP(=O)([O][Na])C(Cl)(Cl)P(=O)([O][Na])[O][Na])C(O)C1O (stereo not given) [Cangrelor Tetrasodium],0.699
8,NC(CCC(=O)[O][Na])C(=O)O [L-Glutamic acid monosodium salt],0.878
9,CCCC1CC(C(=O)NC(C(C)Cl)C2OC(SC)C(OP(=O)(O)O)C(O)C2O)N(C)C1 (stereo not given) [Clindamycin Phosphate],0.863
10,CC(=O)N[C@@H](Cc1ccc(O)cc1)C(=O)O [N-Acetyl-L-tyrosine],1.01
11,COc1cc(S(=O)(=O)[O-])ccc1O.[K+] [Sulfogaiacol],1.77
12,CCC(C)(C)C(=O)OC1CC(C)C=C2C=CC(C)C(CCC3CC(O)CC(=O)O3)C21 (stereo not given) [Simvastatin],0.429
13,COC1C(OC(C)=O)CC(=O)OC(C)C/C=C/C=C/C(O)C(C)CC(CC=O)C1OC1OC(C)C(OC2CC(C)(O)C(OC(=O)CC(C)C)C(C)O2)C(N(C)C)C1O (stereo not given) [Josamycin],0.547
14,CCCCCCCCCCCC(=O)O [Lauric Acid],0.888
15,CC1=CC(=O)CC(C)(C)C1(O)/C=C/C(C)=C\C(=O)O (stereo not given) [Abscisic Acid (Dormin)],0.993
16,CC(NC(=NC#N)Nc1ccncc1)C(C)(C)C.O (stereo not given) [Pinacidil],0.836
17,O=C([O-])CC(O)CC(O)C=Cc1c(C2CC2)nc2ccccc2c1-c1ccc(F)cc1.O=C([O-])CC(O)CC(O)C=Cc1c(C2CC2)nc2ccccc2c1-c1ccc(F)cc1.[Ca+2] (stereo not given) [Pitavastatin Calcium],0.574
18,OCC1OC(O)C(O)C(O)C1O [D-Mannose],0.822
19,Cc1ncc(COP(=O)(O)O)c(C=O)c1O.O [Pyridoxal 5-phosphate monohydrate],1.01
20,CC1(C)SC2C(NC(=O)C(NC(=O)N3CCN(S(C)(=O)=O)C3=O)c3ccccc3)C(=O)N2C1C(=O)[O-].[Na+] (stereo not given) [Mezlocillin Sodium],0.868
